According to PubChem BioAssay AID1468 (National Center for Advancing Translational Sciences (NCATS), 2008):
Hit rate of the full screen: of about 280,000 compounds, about 1,100 (0.39%) were called active. The inconclusive results got no clear call from the source; some entries with a clear call stand among them for comparison. The call rests on the fitted dose curve; in most records, active means well fitted inhibition curve with a large enough effect; inconclusive means small, poorly fitted or top-dose-only effect, or effect the other way; inactive means flat fitted curve, though single readings scatter. No potency is given beside an inconclusive call; the fits are too rough.

Target: Microtubule-associated protein tau (Homo sapiens) (UniProt P10636)
Assay: qHTS for Inhibitors of Tau Fibril Formation, Fluorescence Polarization; further: nearly all actives have a fitted effect of over 55% in size
Conditions: K18 P301L tau heparin fibrillization, Alexa594 FP, 6 h; series mostly up to 57.7 µM; activity, negative = inhibition: at the top concentration
Method in brief: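 Recombinant K18 P301L […], labeled with Alexa 594 at 0.24 uM over 15 uM unlabeled; heparin inducer 20 uM final; 37 C, 6 hr; FP endpoint.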
On the % scale 0 is the no-effect control and ±100 the full control effect; potency means the concentration at half of the fitted maximal effect; tags describe the fitted curve by direction and shape.

Chain of UniProt P10636 (P10636 whole entry, looked up): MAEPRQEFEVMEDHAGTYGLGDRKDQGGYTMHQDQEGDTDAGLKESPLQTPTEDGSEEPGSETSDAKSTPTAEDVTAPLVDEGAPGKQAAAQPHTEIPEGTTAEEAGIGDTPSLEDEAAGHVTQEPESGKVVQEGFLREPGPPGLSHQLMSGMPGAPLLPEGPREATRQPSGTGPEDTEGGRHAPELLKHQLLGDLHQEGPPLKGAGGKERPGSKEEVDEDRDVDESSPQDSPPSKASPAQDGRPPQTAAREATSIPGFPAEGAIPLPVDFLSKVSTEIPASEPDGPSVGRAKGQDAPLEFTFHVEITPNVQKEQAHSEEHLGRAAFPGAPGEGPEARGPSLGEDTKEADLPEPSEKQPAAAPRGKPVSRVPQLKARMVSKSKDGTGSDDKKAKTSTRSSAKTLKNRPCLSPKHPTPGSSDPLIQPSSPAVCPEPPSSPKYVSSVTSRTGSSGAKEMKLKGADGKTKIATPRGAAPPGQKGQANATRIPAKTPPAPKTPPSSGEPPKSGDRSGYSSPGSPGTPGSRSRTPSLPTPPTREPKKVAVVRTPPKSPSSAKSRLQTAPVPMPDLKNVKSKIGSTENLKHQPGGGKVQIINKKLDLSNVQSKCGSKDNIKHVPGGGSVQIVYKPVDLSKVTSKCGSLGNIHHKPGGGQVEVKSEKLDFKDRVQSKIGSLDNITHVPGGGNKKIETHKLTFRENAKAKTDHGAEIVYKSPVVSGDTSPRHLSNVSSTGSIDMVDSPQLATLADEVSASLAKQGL

SMILES	Potency	activity, negative = inhibition
CCCCCCCCCC(=O)O[C@H]1CC[C@H]2[C@@H]3CCC4=CC(=O)CC[C@@H]4[C@H]3CC[C@]12C	inconclusive [activator, partial curve, poor fit]	–
O=[N+]([O-])c1cccc(CN2CCN(Cc3ccc(Cl)cc3)CC2)c1	inconclusive [inhibitor, single point]	–
O=C1NC(=O)C(=Cc2ccsc2)C(=O)N1	inconclusive [inhibitor, single point]	–
Cn1c(O)c(C(=Nc2ccccc2)SCc2ccc(Cl)cc2)c(=O)n(C)c1=O	inconclusive [inhibitor, single point]	–
c1ccc(C[C@@H](c2ccccc2)N2CCCCC2)cc1	–	inactive: -2.56%
COC(=O)c1ccc(NC(=O)CSc2nc3ccc(N4C(=O)C5C6C=CC(C6)C5C4=O)cc3s2)cc1 (stereo unspecified)	inconclusive [inhibitor, partial curve, poor fit]	–
COc1ccc(C(=O)Nc2ccc3oc(-c4ccc(F)cc4Cl)nc3c2)cc1	inconclusive [inhibitor, partial curve, poor fit]	–
Cc1ccccc1-n1c(O)c(/C=N/NC(=O)c2ccccc2O)c(=O)[nH]c1=S	inconclusive [activator, single point]	–
Clc1ccc(COC(Cn2ccnc2)c2ccc(Cl)cc2Cl)cc1 (stereo unspecified)	inactive	–
CCCCC/C=C\C/C=C\C/C=C\C/C=C\CCCC(N)=O	inactive	–
CCCCCCCCCOc1ccc2[nH]cc(CCN)c2c1	inconclusive [activator, full curve]	–
O=c1[nH]c(=O)n(CC2CCCO2)c(O)c1/C=C1\C=Nc2ccccc21 (stereo unspecified)	inconclusive [inhibitor, full curve, poor fit]	–
O=C(CNC(=O)c1ccc(Br)cc1)NCC(=O)OCC(=O)c1ccc([N+](=O)[O-])cc1	inconclusive [inhibitor, partial curve]	–
CN1CCC[C@H]1c1cccnc1	inconclusive [inhibitor, partial curve]	–
CCCN1CCC[C@@H]2Cc3n[nH]cc3C[C@H]21	–	inactive: 4.29%
CC(C)c1cc2c(c(O)c1O)[C@@]1(C(=O)O)CCCC(C)(C)[C@@H]1CC2	inconclusive [inhibitor, partial curve]	–
COc1ccc(C2=NCC(=O)N(CC(=O)NCc3ccco3)c3sc4c(c32)CCCC4)cc1	–	inactive: -4.63%
Cc1ccc(O)c([C@H](CCN(C(C)C)C(C)C)c2ccccc2)c1	inconclusive [inhibitor, single point]	–
CCCCCCC(C)OC(=O)COc1ccc(Cl)cc1Cl (stereo unspecified)	inconclusive [inhibitor, single point]	–
CCOC(=O)C1CCN(/C=C2/C(=O)NC(=O)N(c3ccc(OCC)cc3)C2=O)CC1	inconclusive [inhibitor, single point]	–
N#CCCn1cc(C(=O)Nc2ccccc2Br)c(-c2ccc([N+](=O)[O-])cc2)n1	inconclusive [inhibitor, single point]	–

SMILES	Potency	activity, negative = inhibition
COC(=O)C(O)(c1ccc(N=Cc2ccccc2O)c(C)c1)C(F)(F)F (stereo unspecified)	–	inactive: -7.63%
CSc1ncc(/C=C2/C(=O)NC(=O)N(c3ccc(C)cc3)C2=O)cn1	inconclusive [inhibitor, partial curve]	–
CN1C(=O)N(C)C(=O)C2(Sc3ccccc3C2=O)C1=O	inconclusive [inhibitor, single point]	–
O=C(N=Nc1c(O)[nH]c(=O)[nH]c1=O)C1COc2cc3ccccc3cc2O1 (stereo unspecified)	inconclusive [inhibitor, single point]	–
Oc1cc(O)c2c(c1)OC(c1cc(O)c(O)c(O)c1)C(O)C2 (stereo unspecified)	inconclusive [inhibitor, partial curve]	–
COc1ccc(-n2c(-c3ccc(C)cc3)nc3ccccc3c2=O)cc1	–	inactive: 4.8%
O=C1NC(=S)NC(=O)C1C1CCCCC1	inconclusive [inhibitor, partial curve, poor fit]	–
COc1ccc(/C=C/C(=O)Nc2ccc(C)cc2)cc1	inconclusive [inhibitor, partial curve]	–
CC(C)OC(=O)Nc1cccc(Cl)c1	–	inactive: 7.88%
O=C(Nc1nc2c(Cl)cccc2s1)c1ccc(S(=O)(=O)N2CCc3ccccc32)cc1	inconclusive [inhibitor, single point]	–
O=C(Nc1ccc(Oc2ccccc2)cc1)c1ccc(F)c(S(=O)(=O)N2CCN(c3cccc(Cl)c3)CC2)c1	inconclusive [inhibitor, partial curve]	–
O=C(O)C1CN(CP(=O)(O)O)CCN1 (stereo unspecified)	inconclusive [inhibitor, single point]	–
Nc1nc(/C(=C/CC(=O)O)C(=O)NC2C(=O)N3C(C(=O)O)=CCSC23)cs1 (stereo unspecified)	inconclusive [inhibitor, partial curve]	–
COC(=O)c1ccc(NC(=O)c2cccn(Cc3ccccc3C)c2=O)cc1	inconclusive [inhibitor, single point]	–
CC(=O)O[C@@H]1C[C@@]2(C)C(c3ccoc3)C[C@H]3O[C@]32[C@]2(C)C(=O)C(O)=C3C(C)(C)C(=O)C=C[C@]3(C)C12 (stereo partly specified)	inconclusive [inhibitor, single point]	–
Cc1ccc2c(c1)=C/C(=C\c1c(O)[nH]c(=S)[nH]c1=O)C(=O)N=2	inconclusive [inhibitor, single point]	–
Cn1c(=O)oc2cc(S(=O)(=O)N3CCCC(C(=O)NCc4ccccc4Cl)C3)ccc21 (stereo unspecified)	inconclusive [inhibitor, partial curve]	–
COc1cccc(C(=O)c2cn(CC(=O)Nc3cc(Cl)c(OC)cc3OC)c3nc(C)ccc3c2=O)c1	inconclusive [activator, single point]	–
NC(=NCCC[C@H](N)C(=O)O)N[N+](=O)[O-]	inactive	–
Cc1o[nH]c(=O)c1C[C@@H](N)C(=O)O	inconclusive [inhibitor, single point]	–
